From PubChem BioAssay AID1346428 (National Center for Advancing Translational Sciences (NCATS), 2018) come the findings set out here.

Out of some 48,000 compounds screened, about 1,200 (2.5%) were called active. Inconclusive results (about 2%) are left out.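 Rule for the calls: active = activation of at least 60% and not above a set upper limit (about 1 call in 100 departs from these limits); inconclusive = activation of 40% to 60%, or above that upper limit; inactive = activation under 40%.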 Some of the results follow.

The target in the experiment is Probable G-protein coupled receptor 32 (Homo sapiens) (UniProt O75388). Kind of experiment: qHTS for Agonists of Human Resolvin D1 Receptor DRV1. The conditions noted are these: CHO-K1 GPR32 beta-arrestin PathHunter luminescence, 90 min; at 76.9 µM; active compounds read high; zero percent set by DMSO-only wells. An outline of the steps: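 Using DMSO wells as EC0, agonist-induced signal was taken as chemiluminescence from beta-Gal reconstituted upon beta-arrestin recruitment to GPR32 in CHO-K1 cells after 90 min compound treatment.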
Chain of UniProt O75388 (O75388 whole entry, looked up): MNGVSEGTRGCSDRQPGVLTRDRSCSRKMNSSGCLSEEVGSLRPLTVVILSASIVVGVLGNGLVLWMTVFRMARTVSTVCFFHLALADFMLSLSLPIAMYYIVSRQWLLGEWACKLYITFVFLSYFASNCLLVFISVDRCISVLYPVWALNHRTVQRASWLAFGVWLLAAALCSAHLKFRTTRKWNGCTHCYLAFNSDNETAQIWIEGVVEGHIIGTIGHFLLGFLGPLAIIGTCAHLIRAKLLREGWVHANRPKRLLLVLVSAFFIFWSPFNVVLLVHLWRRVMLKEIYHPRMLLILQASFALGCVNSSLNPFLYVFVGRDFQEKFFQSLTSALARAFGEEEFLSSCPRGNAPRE
In general terms: qHTS replaces the single test concentration by a dilution series.
In the case of `Cc1cc(NC(=O)CN(C)S(=O)(=O)c2ccc3c(c2)CCC(=O)N3)ccc1Br`, the activation was inactive: 44.6%.
As for `Cc1cccc(Cn2c(C)c(C)c3cc(C(=O)NCc4ccc(C)o4)ccc32)c1`, the activation is inactive: -37.8%.
In the case of `CCN(CCCNC(=O)c1nn(-c2ccc(OC)cc2)c(=O)c2c1c1ccccc1n2C)c1cccc(C)c1`, the activation was inactive: -33%.
Consider `COc1ccc(-c2cccc(NS(=O)(=O)c3cc(C)c(Cl)cc3C)c2)nn1`, for which the activation was inactive: 35.7%.
To `Cc1cccc(CS(=O)(=O)Cc2ccc(C(=O)NCc3ccc(Cl)cc3)o2)c1` belongs inactive: -3.17%; to `CCCCC12CN3CC(C)(CN(C1)C3c1c(C)[nH]c(=O)[nH]c1=O)C2=O` (stereo unspecified), inactive: 0.795%.
For the molecule `Cc1cccc(C(CC(=O)NCC2(c3ccccc3)CCCC2)c2ccccc2)c1O` (stereo unspecified), the activation was inactive: 26.3%.
For the molecule `CCC(C(=O)NCCc1ccc(Cl)cc1)n1nc(C)c2c(C)n(-c3ccccc3)nc2c1=O` (stereo unspecified), the activation is inactive: -3.47%.
For `Cc1nc2nc(SCC(=O)NC(C)c3ccccc3)nn2c(C)c1Cc1c(F)cccc1Cl` (stereo unspecified) the value was inactive: -12.6%; for `COc1cccc(CSc2nc3n(n2)C(c2ccccc2C)C(C(=O)Nc2ccccc2OC)=C(C)N3)c1` (stereo unspecified), inactive: -16.3%.
To `O=C(CSc1oc(-c2ccco2)nc1S(=O)(=O)c1ccc(Cl)cc1)c1ccccc1` belongs inactive: -15.8%.
Regarding `CCOc1ccc(CN2C(=O)c3ccccc3Sc3ccc(C(=O)NCc4ccc(C)cc4)cc32)cc1`, the activation is inactive: -19.8%.
To `COC(=O)c1ccc(NC(=O)CC2C(=O)N(c3cccc(OC)c3)C(=O)N2Cc2cccc(OC)c2)cc1` (stereo unspecified) belongs inactive: -22.9%; to `Cc1ccc(N2CCN(C(=O)c3nn(C)c4c3CSc3ccccc3-4)CC2C)cc1` (stereo unspecified), inactive: -17.9%.
To `Cc1ccc(CNC(=O)CN(c2cc(C)cc(C)c2)S(=O)(=O)c2c(C)[nH]c(=O)[nH]c2=O)cc1` belongs inactive: -8.09%.
For `O=C(NC1CCCC1)c1ccc2c(c1)N(Cc1ccc(F)cc1)C(=O)c1ccccc1S2` the value was inactive: -20%.
Consider `CCc1ccc(C2c3c(n[nH]c3C)C(=O)N2c2ccc(C)cc2)cc1` (stereo unspecified), for which the activation was inactive: 3.21%.
To `CCc1cccc(NC(=O)CCS(=O)(=O)c2ccc(C)cc2)c1` belongs inactive: -3.24%; to `CCOc1ccc(-c2ccc(CO)o2)cc1N`, inactive: -19.3%.
Regarding `CC(C)CCNC(=O)CSc1nc2ccsc2c(=O)n1Cc1ccccc1Cl`, the activation is inactive: -22.5%.
As to `COc1ccc(NC(=O)C(Cc2ccccc2)n2cccc2)c(OC)c1` (stereo unspecified), the activation was inactive: -12.1%.
For `O=S(=O)(Nc1nc2n(n1)C(c1ccccc1)C=C(c1ccc(Cl)cc1)N2)c1ccccc1` (stereo unspecified) the value was active: 72.2%.
To `COc1ccc(-c2noc(-c3ccccc3NC(=O)c3cc(OC)c(OC)c(OC)c3)n2)cc1` belongs inactive: -2.93%.
For `COc1ccccc1N1CCN(C(=O)CSc2nc(-c3ccc(C(C)C)cc3)no2)CC1` the value was inactive: -6.64%; for `Cc1cccc(NC(=O)c2c(Br)sc3c2CCCC3)c1`, inactive: -8.5%.
`O=C(NCc1ccc(Cl)cc1)C1CCCN(c2ncnc3onc(-c4ccc(F)cc4)c23)C1` (stereo unspecified): the activation was inactive: -0.93%.
For `COc1ccc(Nc2nnc(-c3ccc(C)c(S(=O)(=O)N4CCOCC4)c3)c3ccccc23)cc1` the value was inactive: 11.5%.
For `O=C(COc1ccccc1F)Nc1nnc(S(=O)(=O)N2CCCCCC2)s1` the value was inactive: 8.14%; for `CCOc1cc(C2c3c(oc4ccc(F)cc4c3=O)C(=O)N2Cc2ccc(C)cc2)ccc1O` (stereo unspecified), inactive: -7.7%.
To `CCCCNC(=O)CSc1nc2n[nH]c(C)c2c(=N)n1-c1ccccc1CC` belongs inactive: -16.1%.
`COc1ccc(C2CC(=O)c3c([nH]c(C(=O)OCc4ccccc4)c3C)C2)cc1OC` (stereo unspecified): the activation was inactive: 0.708%.
For `OC(CCN1CCCCC1)(c1ccccc1)c1ccccc1` the value was inactive: -3.87%; for `CCC1CN(C(=O)Nc2cccc3c2CCCC3)c2cc(C)ccc2O1` (stereo unspecified), inactive: -35.6%; for `CCOC(=O)c1c(C)oc2nc(C)nc(NCCCN3CCN(c4cccc(C)c4)C(C)C3)c12` (stereo unspecified), inactive: -30.5%.
For the molecule `Cc1ccccc1Cc1c(C)nc2nc(SCC(=O)NC(C)c3ccccc3)nn2c1C` (stereo unspecified), the activation is inactive: -30.5%.
To `O=C(NCCCN1CCN(c2ccccc2)CC1)c1cc2c(s1)-c1ccccc1OC2` belongs inactive: 0.0833%.
As to `CCCCNC(=O)C1CCN(Cc2nc(-c3ccc(OC)c(OC)c3)oc2C)CC1`, the activation is inactive: -11.3%.
As to `CCC1CN(C(=O)NCc2ccc(F)cc2)c2ccccc2O1` (stereo unspecified), the activation is inactive: -25.3%.
To `CC(C)(Cc1c[nH]c2ccccc12)NCC(O)COc1ccccc1C#N` (stereo unspecified) belongs inactive: 38.6%; to `Cc1ccc(NC(=O)c2ccco2)c(OCc2cc(=O)n3cc(C)sc3n2)c1`, inactive: -7.7%.
To `COc1ccc(-n2c(=O)c3c4c(sc3n(Cc3cc(=O)n5c(C)cccc5n3)c2=O)CCC4)c(OC)c1` belongs inactive: -6.7%; to `COc1ccc(C2CC(=O)N3CN(C4CCCCC4)CSC3=C2C#N)cc1` (stereo unspecified), inactive: 48%; to `CCc1ccc(CNC(=O)CSCc2cnn(-c3ccccc3)c2-n2cccc2)cc1`, inactive: -32.4%.
For `Cc1ccc(Cn2c(=O)c3ccccc3n3c(-c4ccccc4)nnc23)cc1` the value was inactive: 19.9%; for `COc1ccc(NC(=O)CCCS(=O)(=O)c2nc(-c3ccc(OC)c(OC)c3)cc(C(F)(F)F)n2)cc1OC`, inactive: -10.1%.
Turning to `Cc1ccc(OCC(=O)Nc2ccc3nc(SCC(=O)N4CCCC4)sc3c2)cc1C`, the activation was inactive: -10.7%.
To `O=C(Nc1ccc2c(c1)N(C1CCCC1)C(=O)c1ccccc1S2)c1ccccc1` belongs inactive: -1.06%.
To `Cc1ccc(Cl)cc1NC(=O)CCS(=O)(=O)c1ccc(Br)s1` belongs inactive: 47.4%; to `COc1cccc(-c2nc(CS(=O)CC(=O)N3CCN(c4cccc(C(F)(F)F)c4)CC3)c(C)o2)c1` (stereo unspecified), inactive: -2.35%; to `COc1ccc(CCNC(=O)C(=O)NCC(c2cccs2)S(=O)(=O)c2ccccc2)cc1` (stereo unspecified), inactive: 29.3%.
`Cc1ccc(SCC(=O)Nc2ccc3oc(-c4cccc(C)c4)nc3c2)cc1`: the activation is inactive: 32.6%.
For `CCN1C(=O)CC(C(=O)Nc2ccc(OC)cc2)SC1=Nc1ccc(C)c(C)c1` (stereo unspecified) the value was inactive: 13.2%; for `COc1ccc(OC)c(CNS(=O)(=O)c2ccc(-c3cc(C(F)(F)F)on3)s2)c1`, inactive: -6.29%; for `O=C(Cn1cc(SCc2ccccc2Cl)c2ccccc21)N1CCCCCC1`, inactive: -15.9%.
To `O=C(NCCC1=CCCCC1)c1ccc2c(c1)N(Cc1ccccc1)C(=O)c1ccccc1S2(=O)=O` belongs inactive: -69.4%; to `CCOc1ccc(-c2nc3c(c(CC)nn3-c3ccccc3)c3cc(OC)c(OC)cc23)cc1`, inactive: 5.94%; to `CSc1ccccc1NC(=O)C1=CC(c2ccc3c(c2)OCO3)=NS(=O)(=O)N1C`, inactive: -26.1%.
For `CC1=C(C(N)=O)C(c2cccc(C)c2)n2nc(-c3ccc(Cl)cc3)nc2N1` (stereo unspecified), the activation was inactive: -28.3%.
On to `OCC(CO)N[C@H]1C[C@](O)(CO)[C@@H](O)[C@H](O)[C@H]1O`, for which the activation is inactive: 6.75%.
To `C[N+]1(C)[C@@H]2CC(OC(=O)[C@H](CO)c3ccccc3)C[C@H]1[C@@H]1O[C@@H]12` (stereo partly specified) belongs inactive: -8.8%; to `CCOC(=O)c1ccc2c(c1)N(CC(=O)Nc1cc(F)ccc1F)C(=O)c1ccccc1S2`, inactive: 13.8%; to `CCN(CC)CCOC(=O)c1ccc(NC(=O)c2nn(-c3ccc(C)cc3)c(=O)c3c2c2ccccc2n3C)cc1`, inactive: -14.8%.
In the case of `CCN(C(=O)Cn1nc2c3cc(F)ccc3n(Cc3cccc(C)c3)cc-2c1=O)c1cccc(C)c1`, the activation is inactive: -8.27%.
To `CCOC(=O)CCN(Cc1ccccc1)S(=O)(=O)c1csc(C(N)=O)c1` belongs inactive: -3.24%.
For `Cc1cccc(-c2nc3cc(NC(=O)Cc4ccc(Cl)cc4)ccc3o2)c1` the value was inactive: 21.7%; for `COc1ccc(NC(=O)c2c(NC(=O)COc3ccc(Cl)cc3)sc3c2CCCCC3)cc1`, inactive: -1.05%; for `CCOC(CN1CCN(CC(C)C(=O)c2ccccc2)CC1)c1ccccc1` (stereo unspecified), inactive: 36.3%.
For `COc1cc(OC)c(NC(=O)N2CCOc3ccc(C)cc32)cc1Cl` the value was inactive: -25.8%; for `COc1ccc(CNC(=O)c2oc3c(c2C)-c2nn(Cc4ccccc4Cl)cc2CC3)cc1`, inactive: -16.3%.
`N#Cc1cc2c(=O)n3ccccc3nc2n(-c2nnc(SCc3ccc(F)cc3)s2)c1=O`: the activation was inactive: 20.8%.
To `Cc1ccc(C)c(NC(=O)C(=O)NCC(c2cccnc2)N2CCN(c3ccc(F)cc3)CC2)c1` (stereo unspecified) belongs inactive: -0.0473%; to `COc1ccc(Cn2nnc3c(=O)[nH]c(C4CCCN(C(=O)c5ccccc5Cl)C4)nc32)cc1OC` (stereo unspecified), inactive: 15.1%; to `CCOC(=O)c1ccc(NC(=O)c2nc(S(=O)(=O)Cc3ccccc3)ncc2Cl)cc1`, inactive: -16.5%.
To `COc1cc(NC(=O)C2=C(C)Nc3nnnn3C2c2ccc(SC)cc2)c(OC)cc1Cl` (stereo unspecified) belongs inactive: 0.477%; to `Cc1ccc(S(=O)(=O)c2cn(C)c3cc(N4CCN(c5ccccc5)CC4)c(F)cc3c2=O)cc1`, inactive: 0.789%.
For `CCOC(=O)N1CCc2c(sc3c2c(=O)n(Cc2ccccc2)c(=O)n3Cc2cccc(Cl)c2)C1` the value was inactive: -15.2%; for `CC1CN(C(=O)CCC(=O)NCc2cccs2)c2ccccc2O1` (stereo unspecified), inactive: -2.53%.
Regarding `COc1ccc(NC(=O)c2c(NCc3ccc(C)o3)sc3c2CCC(C)C3)cc1` (stereo unspecified), the activation is inactive: 20.3%.
On to `Cc1nn(CCCC(=O)NCc2ccccc2)c(=O)c2c1sc1ccccc12`, for which the activation is inactive: -8.34%.
To `Cc1ccc(-n2nc(C(=O)N3CCCCC3C)c(=O)n(C)c2=O)cc1` (stereo unspecified) belongs inactive: 1.32%; to `CCOc1ccccc1NC(=O)C1CCN(S(=O)(=O)c2ccc(Br)cc2)CC1`, inactive: -9.34%.
